This is one part of the list. The list includes weakly bound sequences.

For this assay, the target named is T1, MBP-FoxP3dN (UniProt Q99JB6).
T1 sequence: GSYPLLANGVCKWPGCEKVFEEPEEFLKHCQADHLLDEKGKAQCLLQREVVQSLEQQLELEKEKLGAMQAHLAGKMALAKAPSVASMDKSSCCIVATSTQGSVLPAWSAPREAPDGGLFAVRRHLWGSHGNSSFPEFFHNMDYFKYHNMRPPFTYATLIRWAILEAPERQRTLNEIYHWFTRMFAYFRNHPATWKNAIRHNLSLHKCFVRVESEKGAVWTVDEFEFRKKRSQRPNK
The assay can be described thus: PD-seq (MBP pull-down with sequencing). The following applies: 20 mM Tris-HCl pH 7.5, 100 mM NaCl, 1.5 mM MgCl2, 0.4 uM protein, 0.1 uM dsDNA library, 30 min, room temperature, amylose pull-down; high values mean tight binding; double strand, one strand shown.
Turning to “GATGATTGTTCTCCCAGCTGATGAATTTGGAGAGTCGAGTAAACAAATTTTCCTAATCTTTCTGTTCAAGCGCCATCTAC”, the binding signal (RPM ratio (pull-down/input)) stood at 0.307. Next, “GATGATTGTTCTCCCAGCTGATGAATTCCGTCACTCGAGTAAACAAATTTTCCTAATCTTTCTGTTCAAGCGCCATCTAC”: 1.42; “GATGATTGTTCTCCCAGCTGATGAATTAACCCACTCGAGTAAACAAATTTTCCTAATCTTTCTGTTCAAGCGCCATCTAC”: 0.342. Turning to “GATGATTGTTCTCCCAGCTGATGAATTGGTTACATCGAGTAAACAAATTTTCCTAATCTTTCTGTTCAAGCGCCATCTAC”, the binding signal (RPM ratio (pull-down/input)) was 0.681.

Turning to “GATGATTGTTCTCCCAGCTGATGAATTTAAAGCTTCGAGTAAACAAATTTTCCTAATCTTTCTGTTCAAGCGCCATCTAC”, the binding signal (RPM ratio (pull-down/input)) is 0.325.

“GATGATTGTTCTCCCAGCTGATGAATTCATCGAATCGAGTAAACAAATTTTCCTAATCTTTCTGTTCAAGCGCCATCTAC”: the binding signal (RPM ratio (pull-down/input)) stood at 0.299. The result for “GATGATTGTTCTCCCAGCTGATGAATTGGCAGTCTCGAGTAAACAAATTTTCCTAATCTTTCTGTTCAAGCGCCATCTAC” reads 0.485; that for “GATGATTGTTCTCCCAGCTGATGAATTCTAGAAGTCGAGTAAACAAATTTTCCTAATCTTTCTGTTCAAGCGCCATCTAC”, 0.2; that for “GATGATTGTTCTCCCAGCTGATGAATTAGGAGTCTCGAGTAAACAAATTTTCCTAATCTTTCTGTTCAAGCGCCATCTAC”, 1.01. In the case of “GATGATTGTTCTCCCAGCTGATGAATTGGCCGCCTCGAGTAAACAAATTTTCCTAATCTTTCTGTTCAAGCGCCATCTAC”, the binding signal (RPM ratio (pull-down/input)) came out at 0.56. The result for “GATGATTGTTCTCCCAGCTGATGAATTCAAGTAATCGAGTAAACAAATTTTCCTAATCTTTCTGTTCAAGCGCCATCTAC” reads 0.474.

For “GATGATTGTTCTCCCAGCTGATGAATTAAGGGTCTCGAGTAAACAAATTTTCCTAATCTTTCTGTTCAAGCGCCATCTAC”, the binding signal (RPM ratio (pull-down/input)) turned out to be 0.587.

Consider “GATGATTGTTCTCCCAGCTGATGAATTCGTAAATTCGAGTAAACAAATTTTCCTAATCTTTCTGTTCAAGCGCCATCTAC”, for which the binding signal (RPM ratio (pull-down/input)) stood at 0.402. The result for “GATGATTGTTCTCCCAGCTGATGAATTTACCGGGTCGAGTAAACAAATTTTCCTAATCTTTCTGTTCAAGCGCCATCTAC” reads 0.276; that for “GATGATTGTTCTCCCAGCTGATGAATTGACTGGTTCGAGTAAACAAATTTTCCTAATCTTTCTGTTCAAGCGCCATCTAC”, 0.364. With “GATGATTGTTCTCCCAGCTGATGAATTTACAACATCGAGTAAACAAATTTTCCTAATCTTTCTGTTCAAGCGCCATCTAC”, the binding signal (RPM ratio (pull-down/input)) stood at 1.26. Regarding “GATGATTGTTCTCCCAGCTGATGAATTGTTGCATTCGAGTAAACAAATTTTCCTAATCTTTCTGTTCAAGCGCCATCTAC”, the binding signal (RPM ratio (pull-down/input)) was determined as 7.63. The result for “GATGATTGTTCTCCCAGCTGATGAATTCTGCTCTTCGAGTAAACAAATTTTCCTAATCTTTCTGTTCAAGCGCCATCTAC” reads 0.557. As for “GATGATTGTTCTCCCAGCTGATGAATTAATACTTTCGAGTAAACAAATTTTCCTAATCTTTCTGTTCAAGCGCCATCTAC”, the binding signal (RPM ratio (pull-down/input)) was 0.478. Next, “GATGATTGTTCTCCCAGCTGATGAATTATCTCTTTCGAGTAAACAAATTTTCCTAATCTTTCTGTTCAAGCGCCATCTAC”: 0.302; “GATGATTGTTCTCCCAGCTGATGAATTTAGATCGTCGAGTAAACAAATTTTCCTAATCTTTCTGTTCAAGCGCCATCTAC”: 0.458. As for “GATGATTGTTCTCCCAGCTGATGAATTGGACTTTTCGAGTAAACAAATTTTCCTAATCTTTCTGTTCAAGCGCCATCTAC”, the binding signal (RPM ratio (pull-down/input)) turned out to be 0.377. For the sequence “GATGATTGTTCTCCCAGCTGATGAATTGCCATAATCGAGTAAACAAATTTTCCTAATCTTTCTGTTCAAGCGCCATCTAC”, the binding signal (RPM ratio (pull-down/input)) is 1.31. The result for “GATGATTGTTCTCCCAGCTGATGAATTTCTCGTGTCGAGTAAACAAATTTTCCTAATCTTTCTGTTCAAGCGCCATCTAC” reads 0.36; that for “GATGATTGTTCTCCCAGCTGATGAATTACTTGGGTCGAGTAAACAAATTTTCCTAATCTTTCTGTTCAAGCGCCATCTAC”, 0.314; that for “GATGATTGTTCTCCCAGCTGATGAATTCGTAGGGTCGAGTAAACAAATTTTCCTAATCTTTCTGTTCAAGCGCCATCTAC”, 1.01. For “GATGATTGTTCTCCCAGCTGATGAATTTAGCAAATCGAGTAAACAAATTTTCCTAATCTTTCTGTTCAAGCGCCATCTAC”, the binding signal (RPM ratio (pull-down/input)) stood at 0.663. Take “GATGATTGTTCTCCCAGCTGATGAATTATGTCCATCGAGTAAACAAATTTTCCTAATCTTTCTGTTCAAGCGCCATCTAC”: the binding signal (RPM ratio (pull-down/input)) was determined as 0.939. The result for “GATGATTGTTCTCCCAGCTGATGAATTTTGACGGTCGAGTAAACAAATTTTCCTAATCTTTCTGTTCAAGCGCCATCTAC” reads 0.301; that for “GATGATTGTTCTCCCAGCTGATGAATTAAAAAATTCGAGTAAACAAATTTTCCTAATCTTTCTGTTCAAGCGCCATCTAC”, 0.209. For the sequence “GATGATTGTTCTCCCAGCTGATGAATTGGGGTTTTCGAGTAAACAAATTTTCCTAATCTTTCTGTTCAAGCGCCATCTAC”, the binding signal (RPM ratio (pull-down/input)) was 0.67.

The values above are taken from article PMC12820563.
